Measurements taken from the supplement of paper PMC10126150.
Values marked as one replicate rest on one cluster of the flow cell; about a third of the high ones do not repeat.

Tested on: ATP
Assay: switch fluorescence ratio, 500 uM ATP over buffer (Cy3 cluster intensity, sum of 5 cycles each) (fold (ratio)); higher = stronger signal-on switching upon ATP binding; sequences stand for … in TCGTCGGCAGCGTCAGATGTGTATAAGAGACAGTTTTTTTTTTTTTTTTTTTTTTTTT…TC
Details: aptamer strand: ATP DNA aptamer (quencher-CACCTGGGGGAGTATTGCGGAGGAAGG + anchor), 100 nM annealed; ATP concentration: 500 uM; one replicate
Summary of the method: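 Clusters carrying Cy3-labelled switching strands on a modified Illumina MiSeq flow-cell were annealed to 100 nM quencher-labelled ATP aptamer and imaged in selection buffer. They were imaged again after 15 min with 500 uM ATP at 22 °C, over five buffer/ATP cycles with NaOH stripping and re-annealing in between. For each cluster, the fluorescence ratio is the summed Cy3 intensity of the target cycles divided by that of the buffer cycles, averaged per switch-domain sequence. Clusters outside 100-1000 RFU were left out.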
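Further: ATP exposure 15 min at 22 °C before imaging.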

Sequence | switch fluorescence ratio
CACGCTCTAC | 3.28
CAGTGTGTAA | 1.08
GTGGCAACCT | 1.17
CATAGCGACA | 1.05
GTCAAAATGT | 1.01
GTCTGAAAGT | 1.01
ACCTCGGATG | 0.994
AACTAGGCGG | 1.03
ATTGTACCTC | 1.03
GTTTTGCTCT | 0.981
AGAACTATTA | 0.992
TAGGATTAAG | 0.961
CACAGGGGAA | 1.11
AAATATTCAG | 0.999
CTAGATCATA | 0.984
GCCAAAATCC | 1.07
ATTATCGGTG | 0.963
GCCAGGTGGC | 1.26
CATATCTTGA | 0.957
AGGATATTCC | 1.06
AGCGAGTTTA | 1
GGGCGACATG | 0.981
TGTGACCTTA | 1.02
AGCTTCCTCA | 2.65
CGAGGGACAT | 1.02
AGGGCCTGT | 1.04

Sequence | switch fluorescence ratio
CGATGCCCTC | 1.03
GAGCTTCGAT | 1.03
GACTTCCTGG | 0.959
TCATGATGGA | 1
GGATGAATAC | 1.31
GCCTGTGTCA | 0.975
TGCAATTTGC | 1
GTATCTCGTC | 1.02
CATATTACAA | 1.02
TCTACCTCTC | 1.06
AAAGGATATA | 1
CGTGCTTAGG | 1
CCGTGGAGCC | 1.01
GGGGCATCTA | 1.03
TTTCAATGC | 1.37
TTGATTGTAG | 1
ACGCTACGGG | 1.52
CGACGGTATG | 0.988
AAAACTAGG | 0.995
ATAATGGTAT | 0.999
TTTCCAGGGT | 1.02
ACGGACGACA | 1.33
AGCTCATGGG | 0.981
ACACAGCTTG | 0.954
CAAAGGAGTT | 1.01
GCCGTAGATA | 0.974

Sequence | switch fluorescence ratio
TCATGGGAGG | 0.974
AGGAGTCACT | 0.96
TGGATGACCT | 1.04
CATTTTGTCG | 0.927
CCCTGCCGTC | 0.955
TTATAGCGAC | 1.13
GGTTGTAATA | 0.975
TTTAAAAGTA | 1.03
GAACGCCTTT | 1
GAGTGATGGA | 0.976
CTACGGTCGG | 1.03
ACACATAGTC | 1.03
GAAACTCGCC | 1.1
TATGGCTAGC | 1.01
TATTCAGGGC | 1.05
AATCGTGGG | 1.02
CACGGCCTTT | 1.06
TTAAGTCGGA | 0.997
CATATTTACG | 1.07
GGGATCAGGT | 0.996
GCCATTATGT | 1.02
CAATGTGT | 1.04
TGTCTGTGC | 1
GACGTTGGC | 1.02
TTCGAAATGC | 3.76
AGGTAATCG | 1.02

Sequence | switch fluorescence ratio
TATCCGTGCC | 1.1
TTAGAACCAG | 1.04
AGGGGATTT | 1.03
GGACCAACGC | 0.973
GGGCCCAAAT | 0.98
CTTGAGGCGA | 0.967
TTTCATAGCT | 1.03
TTAAGTAAGT | 1.03
TGTTGACAGA | 1
CACAAGAGGT | 1.08
TGGTGATTCA | 1.01
CCTGAACAGG | 1.03
CTGCTCTAC | 2.29
GCGTCCTCGG | 0.991
TCAAGACGTT | 1.04
ATATGAGCGG | 0.923
TTTCAACAG | 1
AACATCACG | 1.15
AAAGTTGCGT | 0.971
GACGCGGGCT | 1.1
GATGGCCTTT | 1
ATTCTAATCG | 0.971
CACGCGTGAA | 1.01
TCGGCCATGA | 1.02
GCTGCCAGCA | 0.999
ATCGGTATGA | 0.973

Sequence | switch fluorescence ratio
TGTGTTATAT | 1.02
GACACCATCA | 1.02
CATCAAAGCG | 0.97
GACGGCTTGT | 0.988
GTTTTATCTG | 0.977
TTATCCGTC | 1.02
GGCGTTATTC | 1.02
CTCGGCTATG | 1.2
AGCGCCAAGG | 1.04
GCATTTATAT | 0.968
ACTGAACTGG | 1.2
GCCTTATTTG | 1.01
TCTGGGGCTA | 1.04
AGTCCAGGAT | 0.989
CAGAGGGTTC | 1.02
AGATTTGAAT | 0.97
CTAATAGGCT | 0.964
AGATGGGAGT | 0.973
TGATGTATCG | 0.98
GTAATGAGAA | 1.01
AGGAAGACTC | 1.33
TTTATAAAGC | 0.941
GAAGGATTTT | 0.95
CCTGACACAT | 1.14
AGTTGAAGGT | 0.98
AGTTGAGTAT | 0.976

Sequence | switch fluorescence ratio
TTAGCTGCAG | 1.05
ATGGCCTGGC | 1
GGCTTTGGGA | 0.967
TGCGCCAGAG | 1.04
GTCTTAGGTA | 1.03
TAGGTTAGG | 1.02
TGTGACACTG | 1.01
TCACTGATAC | 1.41
AGTACGCCGC | 1.18
TGTGGTACAT | 1
GCCAGCTCAC | 1.13
ATTATTTGCT | 0.928
GTTCTTGAGA | 1.01
TGACACGCAT | 1.43
GCTTCGAACG | 1.11
TCGAGTTCG | 0.991
GTTCTCGTCT | 1.04
ACTCAGCTTC | 1.62
CTCGGGACCC | 0.981
CCCGTAGGGA | 1.01
ATATGAATGT | 1
TTACGTAGAA | 1.09
ATACTTTTGT | 1.01
GAGTAAAGC | 0.984
GCATGTATCT | 0.995
ATTCATGGCG | 1

Sequence | switch fluorescence ratio
AAGGATCGGA | 1.02
GTGACATGTG | 0.932
GGATTTATGG | 1.02
AGGGAGGCGT | 0.999
CATTGCCCCG | 1
CTCCTTTCGT | 1.05
GAAGTTACTC | 1.15
GAGTAACAAT | 1.02
TGTAGCTG | 1.07
CCCATTCTCA | 1.02
CGTGCTTATG | 1.03
TTAGATCGAG | 0.998
CTGCCTCTCA | 1.01
AGCCGTTCTT | 1.03
CGGACTGCGT | 1.04
AAATACGGAT | 0.974
AAACCCTCAT | 1.03
CTCGAGCGAG | 1.02
TTTAGGTGCT | 1.09
AACTCGTTCG | 0.966
TTGGAGAGTT | 0.989
ACCACACGG | 1.26
GTAGTTGTGC | 1.15
GCAGAAGGTT | 1.17
CCAAGGAAAT | 1.03
ACTGGAATGT | 1.04

Sequence | switch fluorescence ratio
ATGTATCTGG | 0.994
GCAGGCCTTC | 1.02
TAATCGATGT | 1.02
GTTGGTTAAG | 0.992
GGTTGTCATA | 1.02
GGTTTTAGAC | 1.02
ATAACCGTTA | 1.03
TTCGACTAGG | 0.982
CAACTGAGTT | 1.01
TAGTGCTGGA | 0.939
TGATCCCTGG | 1.03
TAATTATGAA | 0.986
GAATGAATTA | 0.991
ACGTACGTCC | 1.46
GCGAGAAGCA | 1.03
GGCTTAGGAG | 1.03
CAACTGTTGA | 1.02
GGTCAAGCGT | 0.992
GAGCAAAAGA | 1.25
